Where “and” joins values, the source holds several entries; their conditions need not be identical. Equal values may be shown once.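 Dose response: 5 concentrations. Exposure: 48 h. Format: 96-well plates. Endpoint: linear interpolation; highest concentration if not reached. GI50 marks 50% less growth.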 Calls of active or inactive are those of the source. Rule as the data show it: active = GI50 up to about 1.1 µM and inactive = higher.
system: NCI-H322M; experiment: NCI tumour cell line growth inhibition, 48 h

SMILES | GI50
CC1=CCC[C@H]2[C@](C)(CC3=CC(=O)C(SCC(C)C)=CC3=O)[C@@H](C)CC[C@]12C | inactive: 17.3 µM
O=[N+]([O-])c1ccc2c3ccccc3[s+]([O-])c2c1 (stereo not given) | inactive: > 100 µM
CC1=C/C(=C(/c2ccc(O)c(C)c2)c2ccccc2C(=O)O)C=CC1=O | inactive: 19.5 µM
Cc1cc2nc3[nH]c4c(Cl)cc(Cl)cc4c3nc2cc1C | inactive: > 100 µM
O=C(NCCCNC(=O)c1ccc2c(O)c(O)ccc2c1)c1ccc2c(O)c(O)ccc2c1 | inactive: 43.1 µM
Nn1c(CCCCCCCCc2nnc(COc3ccc(Cl)cc3)n2N)nnc1COc1ccc(Cl)cc1 | inactive: 95.3 µM
O=C1Sc2cc3ccccc3cc2C(=O)Sc2ccc(Br)cc21 | inactive: 15.7 µM
NNC(=O)CC(=O)Nc1ccc(Cl)cc1 | inactive: > 100 µM
CC1CC(C#N)=C2NCCCCN2C1=O (stereo not given) | inactive: > 100 µM
CNC(=S)N/N=C(C)\C(=N/NC(=S)NC)c1ccccc1 | inactive: 95.9 µM
COC(=O)NC(Cc1ccccc1)NC(C)=O (stereo not given) | inactive: > 100 µM
N#Cc1c(-c2ccccc2)nc(-c2ccccc2)sc1=S | inactive: > 100 µM
C=CCO[C@]1(CC=C)C(=O)C(=O)OC1C1COC(C)(C)O1 (stereo not given in full) | inactive: > 100 µM
Nc1ccc(OCCCc2c(-c3ccccc3)[nH]c(N)nc2=O)cc1 | inactive: 60.7 µM
C=CCC(C(=O)OC)C1(C(=O)OC)c2[nH]c3ccccc3c2CCN1Cc1ccccc1 (stereo not given) | inactive: > 100 µM
Nc1nncc2[nH]nnc12 | inactive: > 100 µM
N#C/C(C(=S)Nc1ccccc1)=C(/N)N1CCCC1 | inactive: > 100 µM
O=C(CCCC(=O)N1CC(CCl)c2ccc([N+](=O)[O-])cc21)N1CC(CCl)c2ccc([N+](=O)[O-])cc21 (stereo not given) | inactive: > 100 µM
CCOC(=O)C1(C(=O)OCC)[C@H](c2ccccc2)C2=NO[C@@H]3CCC[C@H]1[C@H]23 | inactive: > 100 µM
COC(=O)C1OC(O[C@H]2CC[C@]3(C)[C@H]4CC=C5[C@@H]6CC(C)(C)CC[C@]6(C(=O)OC6OCC(O)C(O)C6OC6OC(C)C(OC7OCC(O)C(OC8OCC(O)C(O)C8O)C7O)C(OC7OCC(O)C(O)C7O)C6O)CC[C@@]5(C)[C@]4(C)CC[C@H]3C2(C)C)C(O)C(OC2OCC(O)C(O)C2O)C1O (stereo not given in full) | inactive: 3.36 µM and inactive: 2.65 µM
O=S1(=O)c2cnccc2N=C(NCc2ccccc2)N1c1ccccc1 | inactive: > 100 µM
O=C(O)CCc1ccc2c(c1)C(=O)CC2 | inactive: > 100 µM
OC(c1cccnc1)C(F)(F)c1nc2ccccc2o1 (stereo not given) | inactive: > 100 µM

SMILES | GI50
Cc1cc(=O)c2ccccc2n1CCCCCCCCCCn1c(C)cc(=O)c2ccccc21 | inactive: 15.3 µM
COc1cc(N(Cc2ccc3oc(=O)c(-c4ccccc4)nc3c2)Cc2ccc3oc(=O)c(-c4ccccc4)nc3c2)cc(OC)c1OC | inactive: > 10 µM
CCOC(=O)c1c(-c2ccc(Cl)cc2)c(C#N)c(=S)n(C2OC(COC(C)=O)C(OC(C)=O)C(OC(C)=O)C2OC(C)=O)c1C (stereo not given) | inactive: > 100 µM
CC(=O)NC1C(OCC(=O)NCCNc2ccc([N+](=O)[O-])c3[nH]c4ccccc4c(=O)c23)C(O)C(CO)OC1(C)OCc1ccccc1 (stereo not given) | inactive: > 100 µM
ClC1=NSSC1(Cl)Cl | inactive: > 100 µM
O=c1[nH]c2ccccc2nc1CBr | inactive: 20 µM
O=C(Nc1c(O)[nH]c(=S)[nH]c1=O)c1ccccc1F | inactive: > 100 µM
Cn1cnc2c(sc3nc4ccccc4n32)c1=N | inactive: > 100 µM
Sc1nnc(-c2ccccc2Nc2ccccc2-c2nnc(S)n2-c2ccccc2)n1-c1ccccc1 | inactive: 38 µM
Cc1cnc2c(c1C)C(=O)c1ccccc1C2=O | inactive: 61.4 µM
CCNC1=C(NC(=O)CC)C(=O)c2ccccc2C1=O | inactive: > 100 µM
Cc1nc2c(n1CC(C)C)C(=O)c1ccccc1C2=O | inactive: 37.2 µM
CC(CO)(CO)/N=C/c1cc(I)cc(I)c1O | inactive: 19.5 µM
O=C1CCC(=O)N1CNc1ccc2c(c1)S(=O)(=O)c1ccccc1O2 | inactive: > 100 µM
COc1ccc2n[se]nc2c1 | inactive: 41 µM
COC(=O)C1=C(OC(=O)/C(=C/c2ccccc2)c2ccc(OC)cc2)C(C(=O)OC)[C@@]2(O)[C@@H](C(=O)OC)[C@H](C)C[C@@H]1[C@@H]2C(=O)OC (stereo not given in full) | inactive: > 100 µM
N#C/C(=C\c1ccccc1F)C(=O)c1ccccc1 | inactive: > 100 µM
C[C@@H]1OC(=O)N2CCCC(=C3SCCCS3)C12 (stereo not given in full) | inactive: 68.2 µM
CCc1c(Cl)nc(Cl)nc1Cl | active: 1.11 µM
O=C(O)c1nc2cc(C(F)(F)F)ccc2nc1Nc1ccc(F)cc1 | inactive: 29.2 µM
N#CC(C(=O)Nc1ccccc1)C1=C(Cl)C(=O)c2ccccc2C1=O (stereo not given) | inactive: 14.1 µM
Cc1nc(-n2[nH]c(C)c(CCO)c2=O)[nH]c(=O)c1CCO | inactive: > 100 µM

— ChEMBL document CHEMBL1201862, “PubChem BioAssay data set” (2004)
